Some of the results follow. At the low end of the ranking, values are background and their order means little.

This test addresses T1, GST-Rok (full length) (UniProt O34857).
T1 sequence: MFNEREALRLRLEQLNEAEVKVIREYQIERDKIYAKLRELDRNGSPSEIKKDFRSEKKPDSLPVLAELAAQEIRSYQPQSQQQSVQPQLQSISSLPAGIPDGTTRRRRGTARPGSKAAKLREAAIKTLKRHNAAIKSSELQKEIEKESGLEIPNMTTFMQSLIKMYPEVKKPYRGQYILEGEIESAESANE
As to the kind of experiment: protein binding microarray.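 Note: rank score from −0.5 (least bound) to 0.5 (best bound).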 Conditions: Rok is a gene silencer of Bacillus subtilis; high values mean tight binding; most listed sequences are background and not binding sites; double strand, one strand shown.
In the case of CGAAGCCA, the binding signal was -0.165 E-score.
The sequence ATTACCTC gave a binding signal of 0.167 E-score.
On to CAGATGCC, for which the binding signal was -0.284 E-score.
To AAGAGCGG belongs -0.237 E-score.
To CCACACGC belongs -0.153 E-score; to AAAGCAGT, -0.147 E-score; to ACCTTATA, 0.106 E-score.
On to CCTTTTGA, for which the binding signal was -0.0644 E-score.
To CGAATACA belongs 0.186 E-score.
Regarding GCAGCCGC, the binding signal is -0.259 E-score.
On to ACGAACGA, for which the binding signal is -0.116 E-score.
Take GCGAACGC: the binding signal was -0.213 E-score.
On to CAAAGGTC, for which the binding signal is -0.233 E-score.
To GCCATTAC belongs -0.0445 E-score; to AACCATTA, 0.125 E-score; to ACCCAATC, 0.0244 E-score.
ATTTAGTG had a binding signal of 0.166 E-score.
On to CGATAGGC, for which the binding signal is 0.0165 E-score.
Regarding CCTGTGAG, the binding signal is -0.236 E-score.
Then CCACCACC, with -0.235 E-score; and TATAACAA, with 0.115 E-score; and CGCCACCG, with -0.165 E-score.
Take GCATACTA: the binding signal was 0.325 E-score.
CCCGCCGA showed a binding signal of -0.228 E-score.
Then TAGTCGCA, with -0.00994 E-score; and CGGCCGAG, with -0.15 E-score.
The sequence CACACCTG displayed a binding signal of -0.112 E-score.
With AGTATGCA, the binding signal was determined as 0.109 E-score.
To GTTCCAGA belongs -0.00944 E-score; to ACAGAGGC, -0.125 E-score.
Consider TAACAATA, for which the binding signal stood at 0.279 E-score.
CGTCGTAA had a binding signal of 0.137 E-score.
As for AGGTCGCG, the binding signal was -0.157 E-score.
Then AAATCAGC, with -0.034 E-score; and ACCCAAGG, with -0.366 E-score; and CTCGAGGA, with 0.0585 E-score.
The sequence AGAACTGA yielded a binding signal of 0.126 E-score.
Regarding ATAAAGAT, the binding signal is 0.189 E-score.
Then AATTGAGG, with 0.106 E-score.
The sequence ACAATCTA came in with a binding signal of 0.283 E-score.
To CTGTAACA belongs 0.0487 E-score; to ATAAGCGC, 0.037 E-score.
GGGGCCAA yielded a binding signal of -0.067 E-score.
CGCCGGCG came in with a binding signal of -0.381 E-score.
For the sequence ACAGACCC, the binding signal was -0.29 E-score.
With ATAAGAGG, the binding signal was found to be 0.0493 E-score.
AAATATCT yielded a binding signal of 0.355 E-score.
Regarding GGCGACCA, the binding signal was -0.0886 E-score.
The sequence CGCGTGGA yielded a binding signal of -0.0544 E-score.
With AGATACAG, the binding signal amounted to 0.116 E-score.
Sequence ATGTTGTC had a binding signal of 0.109 E-score.
Sequence ACTGGCCA came in with a binding signal of -0.0549 E-score.
Sequence AATACGGG returned a binding signal of 0.105 E-score.
For the sequence GAGGAGTA, the binding signal is -0.0342 E-score.
To ACCTCTAT belongs -0.0213 E-score; to AGACCTAA, 0.0612 E-score.
CACGATGA came in with a binding signal of -0.0769 E-score.
Regarding ATTGCATA, the binding signal amounted to 0.226 E-score.
As to CGGCACCG, the binding signal was -0.254 E-score.
To ACCTTACC belongs -0.00261 E-score.
Regarding ATCCATAG, the binding signal was determined as 0.0675 E-score.
Then AAGCTGGG, with -0.317 E-score; and TTACCAAA, with 0.236 E-score.
Consider CTTATGAC, for which the binding signal turned out to be 0.247 E-score.
Consider ACCTTGGC, for which the binding signal was -0.12 E-score.
With CGTATGCA, the binding signal was found to be 0.0909 E-score.
CTCTCTAC registered a binding signal of 0.0296 E-score.
CTTCTTTA had a binding signal of 0.0111 E-score.
GAAGGCTC displayed a binding signal of -0.367 E-score.
In turn, CTTGCATC gave a binding signal of -0.0878 E-score.
GTGATTCA returned a binding signal of -0.0295 E-score.
The sequence GGCAACTA returned a binding signal of 0.171 E-score.
To AGCAGCGA belongs 0.141 E-score; to AAATTGAC, 0.177 E-score.
To AAGTCCTG belongs -0.135 E-score; to CAACCTGC, -0.143 E-score.
For AGTGAGGA, the binding signal is -0.0361 E-score.
Then CTGGCCAC, with -0.145 E-score; and CTCAAGTA, with 0.201 E-score.
As to CCGCGCGC, the binding signal is -0.15 E-score.
Then ACTAAAGG, with -0.061 E-score; and ATCGGGGC, with -0.281 E-score; and TATGCGGA, with 0.106 E-score.
Sequence TACTTGAA gave a binding signal of 0.0791 E-score.
Consider GTGTAGCA, for which the binding signal stood at 0.109 E-score.
Sequence CGTCGGCC showed a binding signal of -0.362 E-score.
Take ACTCGATG: the binding signal was found to be 0.218 E-score.
Take ACGCTTAG: the binding signal was -0.129 E-score.
Sequence AGCGGCTA came in with a binding signal of -0.132 E-score.
Then ATCCCAGA, with -0.144 E-score; and CACGAGCG, with -0.19 E-score; and GACCCTGC, with -0.196 E-score.
Then TATCGTAA, with 0.293 E-score; and ACCTATAT, with 0.301 E-score.

The values above are taken from paper PMC6212790.
